Consider 55 sequences from the supplement of paper PMC11417369.

Some of the results follow.

The subject of this test is PfSIP2 AP2 domain 1 (GST-tagged). The experiment in a line: gcPBM binding intensity (ln(normalized median fluorescence intensity)); higher = stronger DNA binding. The gist of the method:
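GST-fused DNA-binding domains of P. falciparum, expressed in E. coli, were applied at about 25 μg on average for 1 h to an Agilent 4 × 180k array of primer-extended double-stranded 36-bp intergenic genomic probes and negative controls. Binding intensity is the highest Masliner-normalised natural-log median intensity across replicate spots of either probe orientation, measured with Alexa488 anti-GST antibody and a 488 nm scan.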
Take “TATATAGGTAAAAAATGTACTTATATTGAATATATT [XGTACX_site4414]”: the “gcPBM binding intensity (ln)” value came to 6.77. “TTTACAATATTAAAATGTACATATAAAATAAATAAA [XGTACX_site8367]”: the “gcPBM binding intensity (ln)” value came out at 7.14. Turning to “GATATCAAATATAAATGTACAAATTATATATACATA [XGTACX_site3228]”, the “gcPBM binding intensity (ln)” value worked out at 6.83.

“TTCTTATTTATTTTCTTCTCCTTCCTCAAATTTTTT [GTGCAC_negctrl_site592]”: the “gcPBM binding intensity (ln)” value is 6.95. As for “AATTTGTTAATATTTTGTACACATAATATAAAAACA [XGTACX_site2224]”, the “gcPBM binding intensity (ln)” value amounted to 7.08. As to “TTTACAATATAAAATACACACACACTAACATATATT [CACACA_site9231]”, the “gcPBM binding intensity (ln)” value was 7.1. As for “TATATAAATGTTATCACACACTCACGTTTGACAAAA [CACACA_site6468]”, the “gcPBM binding intensity (ln)” value is 6.97. On to “ATACAATAAAATAAGTTTGAATAAAATTAAATATAT [CACACA_negctrl_site877]”, for which the “gcPBM binding intensity (ln)” value is 6.77. Consider “TCCTTTTTTAAAAGTTGTACATTATTGTTATTTGTT [XGTACX_site4686]”, for which the “gcPBM binding intensity (ln)” value stood at 6.94.

On to “TTCCTCTTAATATGTGCACACTAAATTATAACCTAA [CACACA_site5751]”, for which the “gcPBM binding intensity (ln)” value amounted to 9.95. Turning to “GAAGGAAATAATAGTAGTACAAATGGTAAGAAATAT [XGTACX_site5845]”, the “gcPBM binding intensity (ln)” value was determined as 7.53.

For “ATTTTTTCTGTCTTAATTGGACCCACTGCAAATGGG [CACACA_negctrl_site1158]”, the “gcPBM binding intensity (ln)” value was found to be 6.94. On to “ATAATACAAAAAAAAAAAAAAAATAAAATAATAAAA [GTGCAC_negctrl_site722]”, for which the “gcPBM binding intensity (ln)” value came out at 6.92. “AAGTAATACAACACGCACATATATATATATATATAT [GTGCAC_negctrl_site89]”: the “gcPBM binding intensity (ln)” value stood at 9.94. For “TTATAGCCTGTGAAGAGTACATTTTTATTTTTTATT [XGTACX_site4105]” the value was 6.85; for “TACCTAAATAAATGGACACACACATATATATATATA [CACACA_site8407]”, 9.63; for “TATTTTTAAATATAAAGTACTTATATTAACTACGAA [XGTACX_site1524]”, 6.95. In the case of “TTCATATATTTTAAAGCATGCATTCATCTTATAGTT [TGCATGCA_site800]”, the “gcPBM binding intensity (ln)” value turned out to be 6.94.

For the sequence “TTTACGCTATAGGAGAGTACTTATAAAATCCTGTGT [XGTACX_site2364]”, the “gcPBM binding intensity (ln)” value is 6.96. With “TACAAAATATATATGACACACACAAAAAAAGTATAT [CACACA_site8455]”, the “gcPBM binding intensity (ln)” value was found to be 7.06.

In the case of “TATTTTTCCATTGGGGGTACATGTGTTATATTTATT [XGTACX_site5914]”, the “gcPBM binding intensity (ln)” value amounted to 8.61.

As for “AGACGAAAATAATAAAGTACTAAAAAAAAAAAAAAA [XGTACX_site927]”, the “gcPBM binding intensity (ln)” value was determined as 6.77.

Regarding “ATATATATGCATATATGTACTTAAAATATAAAGGCA [XGTACX_site3256]”, the “gcPBM binding intensity (ln)” value stood at 7.29. For “ATAAGATGATGGAACTGTAATATATATATATATATA [CACACA_negctrl_site839]” the value was 9.32. As for “TTTAAGAGTTGCACACGTACAAAAAAAAAAAAAAAA [XGTACX_site7406]”, the “gcPBM binding intensity (ln)” value worked out at 7.99. To “TTGTATACATAAAATGGTACAGAATATATAATTCTA [XGTACX_site7236]” belongs 6.79; to “GTATACCAACATATTATACACACCTTTATATTTTTT [CACACA_site2153]”, 7.12; to “ATTACATGTTACTTAACACACATCTGGTGAAATAAT [CACACA_site171]”, 7.05. For “TTAATTAAAATTTATACATGCATAAAAGAAATACAC [TGCATGCA_site537]” the value was 7.88; for “ATTTTTTTCTTTTCTTTTTTCTTTTTTTTTTTTGGT [CACACA_negctrl_site1146]”, 6.69; for “GTAATGAAACATTGCACACATATAATAATATAATAT [CACACA_site1422]”, 7.19.

In the case of “TTATACTGTTTCAGAAAAATAAAGAATGAAAGTATT [XGTACX_negctrl_site230]”, the “gcPBM binding intensity (ln)” value amounted to 7.1. As for “TTTTTATATTCCCCCAGTACATATATAATAGTAGTA [XGTACX_site7927]”, the “gcPBM binding intensity (ln)” value came to 8.16.

Consider “TGCAACAAAATAAACACACACACACCCCCACAAAAA [CACACA_site3388]”, for which the “gcPBM binding intensity (ln)” value was 8.26. To “AATAAAAAAATAAAATGTACATACAAATAAATAAAT [XGTACX_site5153]” belongs 6.86; to “TATTTTAATGAAGCATTTAAGGGAAAAAAAAAAAAA [TGCATGCA_negctrl_site606]”, 6.81. With “TTTTTATTTTTTTTATGTACACAAATGATATACATA [XGTACX_site5910]”, the “gcPBM binding intensity (ln)” value came to 7.44.

Regarding “AGGATACACGGACACACACACATATAGATTTATATA [CACACA_site6552]”, the “gcPBM binding intensity (ln)” value came out at 7.15. With “TTTCTTTTTTTTTTTTTTTCTGGCTTTTTCTCTTTT [TGCATGCA_negctrl_site599]”, the “gcPBM binding intensity (ln)” value was determined as 6.53. Turning to “TATATTACTTAAAATACACACCATGGAAAAGTTTTA [CACACA_site5443]”, the “gcPBM binding intensity (ln)” value was determined as 6.77. Turning to “ATTATTTTTCTATGTGTGCACGTGTGGAATGTGTCT [GTGCAC_site9507]”, the “gcPBM binding intensity (ln)” value came out at 10.3. As for “TTCTGAACAAAATTATATATTTATTTTTATTTTCAT [CACACA_negctrl_site422]”, the “gcPBM binding intensity (ln)” value was found to be 6.91. With “CATTATGTCATAAATGCACACATATACATTGTTTTG [CACACA_site8118]”, the “gcPBM binding intensity (ln)” value is 7.26. For “AATAAATTATTTATTGCATGTAATATGAATATTTTT [TGCATGCA_site798]”, the “gcPBM binding intensity (ln)” value is 6.69. “TAATGTATGAAATAAACACACAAGTAAGTACATAAA [CACACA_site2451]”: the “gcPBM binding intensity (ln)” value amounted to 7.19.

As for “ATATATTTTATTCCTATATATATATATATATATATA [GTGCAC_negctrl_site556]”, the “gcPBM binding intensity (ln)” value came out at 9.69. For “TCTGTAGTTTTTTACAGTACTTTTAGGTAATACATA [XGTACX_site7417]”, the “gcPBM binding intensity (ln)” value was found to be 6.77. Regarding “TTCTTGTATTTTCATAGTACATATAATGTCGTGTTA [XGTACX_site7714]”, the “gcPBM binding intensity (ln)” value was 7.1. On to “AAAACACCCAAACACACACACACATATATATATATA [CACACA_site9119]”, for which the “gcPBM binding intensity (ln)” value came out at 9.55. For “AGAAAAAAAATATACACACATACGATCATACATATG [CACACA_site2171]”, the “gcPBM binding intensity (ln)” value worked out at 6.86. Regarding “TACATAGAGTTTGTTTGTACTCATATGCGTAAATTC [XGTACX_site4810]”, the “gcPBM binding intensity (ln)” value came out at 6.97. For “ACCTCTTTGAAATATACACACTAAACATATCAACTT [CACACA_site5372]” the value was 7.47; for “AATATTATTATTATTACACACACAATTATATTTACC [CACACA_site8061]”, 7.05; for “ATATTTTAAATGTTATGTACACATTTGTTGTTTACA [XGTACX_site7353]”, 7.18. In the case of “TTAATTTGTTCTTACACACACATATATATATATTTA [CACACA_site1185]”, the “gcPBM binding intensity (ln)” value turned out to be 7.27.
